According to PubChem BioAssay AID686978 (National Center for Advancing Translational Sciences (NCATS), 2013):
Where “and” joins values, the source holds several entries; their conditions need not be identical. Equal values may be shown once. In all, about 420,000 compounds went through this assay and about 64,000 (15%) were called active. Inconclusive results, whose numbers are uncertain, are shown with a selection of clear calls. Calls follow the shape of the dose curve; as a rule, active = well fitted inhibition curve with a large enough effect; inconclusive = small, poorly fitted or top-dose-only effect; inactive = flat fitted curve, though single readings scatter. Potencies beside an inconclusive call are fits to weak or partial responses and may not hold up.
% is scaled to controls: 0 for no effect and ±100 for the full control effect; potency is read from the fitted curve at half-maximal effect; tags tell the direction and shape of the fitted curve.

Experiment: qHTS for Inhibitors of human tyrosyl-DNA phosphodiesterase 1 (TDP1): qHTS in cells in absence of CPT; also: nearly all actives have a fitted effect of over 55% in size
Details: DT40 Tdp1-/- hTDP1 cells, no CPT, ATP luminescence, 48 h; activity change, negative = growth inhibition: at 46.2 µM (top of the series) unless noted
Summary of the method: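 Readout: luminescence from CellTiter-Glo after 30 min in the dark at RT. Cells: DT40 Tdp1-/- with stable hTDP1, 400/well. Exposure: compounds alone, ≥48 hr, 37 °C.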
For `O=C(c1ccc(Cl)cc1)n1cnc2ccccc21`, the Potency was inconclusive: 23.1 µM [inhibitor, partial curve].
In the case of `Cc1cc(C)c(NC(=O)CN(C2CCCCC2)C2CCCCC2)c(C)c1`, the Potency is reported as active: 16.4 µM.
In the case of `COCc1ccc(CN2CCC(C(=O)Nc3cccc(-c4cscn4)c3)CC2)o1`, the Potency is reported as “inactive”.
For `CCCSC1=C(C#N)C(c2ccc(OC)cc2)C2=C(CC(C)(C)CC2=O)N1` (centres undefined), the Potency was active: 4.11 µM.
In the case of `Cc1cccc(Nc2nnc(SCc3cc(=O)n4cc(C)ccc4n3)s2)c1`, the Potency is reported as active: 23.1 µM.
For `COc1ccc(NC(=O)CN2CCN(CC(=O)Nc3ccc(F)cc3F)CC2)cc1`, the Potency was inconclusive: 20.6 µM [inhibitor, single point].
In the case of `Cc1ccc(S(=O)(=O)NNC(=O)C(=O)NNc2ccccn2)cc1`, the Potency is reported as inconclusive: 29.1 µM [inhibitor, single point].
In the case of `CC(C)CC(OC(=O)c1cccs1)C(=O)NCc1ccco1` (centres undefined), the activity change, negative = growth inhibition is reported as inconclusive: -31.7% [inhibitor].
In the case of `CN1CCN(C(=O)/C(=C/c2cccnc2)NC(=O)c2cccc(Br)c2)CC1`, the Potency is reported as “inactive”.
In the case of `Cc1nnc(N/N=C/c2cc([N+](=O)[O-])c(N3CCC(C)CC3)cc2N2CCC(C)CC2)n1N`, the Potency is reported as inconclusive: 9.2 µM [inhibitor, partial curve].
In the case of `c1ccc2c(c1)CCN(C1=Nc3cccc4cccc1c34)C2`, the Potency is reported as inconclusive: 18.4 µM [inhibitor, single point].
With `C=CCn1c(Cc2csc(N)n2)nnc1SCC(=O)Nc1ccccc1C(F)(F)F` the Potency was “inactive”.
With `COCCNC(=O)CSCc1nc(-c2ccc(SC)cc2)oc1C` the Potency was inconclusive: 25.9 µM [inhibitor, single point].
For `O=C(Cc1cccc([N+](=O)[O-])c1)Nc1cccc(C(=O)N2CCCCC2)c1`, the Potency was inconclusive: 29.1 µM [inhibitor, single point].
For `Cc1ccc(NC2=C(NCCO)C(=O)c3ccccc3C2=O)cc1`, the Potency was inconclusive: 20.6 µM [inhibitor, single point].
In the case of `Fc1ccc(-c2c[nH]c(=S)n2Cc2ccccc2)cc1`, the Potency is reported as inconclusive: 16.4 µM [inhibitor, single point].
In the case of `COc1cc(NS(=O)(=O)c2ccc(NC(=O)/C=C/C(=O)O)cc2)nc(OC)n1`, the Potency is reported as “inactive”.
For `Cc1cc2c(C)nc(N/N=C/c3ccc([N+](=O)[O-])cc3)nc2o1`, the Potency was inconclusive: 11.6 µM [inhibitor, partial curve].
In the case of `COc1ccccc1-c1cc2nc(C)c(CCC(=O)NCc3ccco3)c(C)n2n1`, the Potency is reported as inconclusive: 29.1 µM [inhibitor, single point].
With `O=C(Nc1nc2cc3c(cc2s1)OCCO3)c1ccncc1` the Potency was active: 23.1 µM.
With `COc1cccc2cc(C(=O)N3CCN(c4ccc(C)cc4C)CC3)c(=O)oc12` the Potency was inconclusive: 29.1 µM [inhibitor, single point].
For `CCN(CCO)c1ncnc2c1sc1nc(C(C)C)c3c(c12)CC(C)(C)OC3`, the Potency was inconclusive: 9.2 µM [inhibitor, partial curve, poor fit].
In the case of `Cc1cc(C)n2nc(-c3ccc(Cl)cc3)cc2n1`, the Potency is reported as inconclusive: 23.1 µM [inhibitor, partial curve, poor fit].
For `CCN1C(=O)C(=O)N(CC(=O)Nc2cc(C)ccc2C)C1=O`, the Potency was “inactive”.
With `CCOC(=O)C1=CCC(c2ccc(Cl)cc2)N(S(=O)(=O)c2ccc(C)cc2)C1` (centres undefined) the Potency was active: 18.4 µM.
For `Cc1ccccc1NS(=O)(=O)c1cc(C(=O)Nc2cccc(N(C)S(C)(=O)=O)c2)ccc1C`, the Potency was inconclusive: 11.6 µM [inhibitor, partial curve].
For `CCC(=O)Nn1cnc2c(c1=O)C1(CCCCC1)Cc1ccccc1-2`, the Potency was inconclusive: 29.1 µM [inhibitor, single point].
In the case of `O=S(=O)(NCCS(=O)(=O)N1CCN(c2ccccc2)CC1)c1ccccc1`, the Potency is reported as “inactive and inconclusive: 3.66 µM [inhibitor, partial curve]”.
With `CCCCCC/C(C=O)=C\c1ccccc1` the Potency was “inactive”.
For `CN(C[C@H](CC1CCCCC1)N(C[C@H](Cc1ccccc1)N(CCc1ccccc1)N=O)N=O)N=O`, the Potency was active: 16.4 µM.
In the case of `COc1ccccc1-n1cc(C(=O)NCC(=O)N2CCN(c3ccccn3)CC2)c2ccccc2c1=O`, the Potency is reported as inconclusive: 20.6 µM [inhibitor, single point].
For `COc1cccc(C(=O)NC(=S)Nc2ccc(N(C)C)cc2)c1`, the Potency was inconclusive: 23.1 µM [inhibitor, single point].
With `Cc1ccc(S(=O)(=O)N2C3CCCCC3O[C@H]2CC(=O)c2ccccc2)cc1` (some centres undefined) the Potency was inconclusive: 29.1 µM [inhibitor, single point].
For `Cc1nn(C(C)(C)C)c(OC(=O)c2cccs2)c1Sc1ccccc1`, the Potency was “inactive”.
For `Cc1cc(C)cc(NC(=O)Nc2cc(S(=O)(=O)N(C)C)ccc2C)c1`, the Potency was inconclusive: 29.1 µM [inhibitor, single point].
In the case of `COc1ccc(NS(=O)(=O)c2ccc(N3CCCC3)c(NC(=S)Nc3ccc(SC(F)F)cc3)c2)cc1`, the Potency is reported as active: 18.4 µM.
In the case of `CCCNC(=O)c1ccc(N2CCC3(CC2)CC(c2cccc(Br)c2)=NO3)c(NC(=O)c2ccc(Cl)c([N+](=O)[O-])c2)c1`, the Potency is reported as “inactive”.
For `CSC(=S)N/N=C(\C)c1ccccc1`, the Potency was inconclusive: 4.61 µM [inhibitor, full curve, poor fit].
In the case of `CCCCN(C(=O)CNC(=O)c1ccco1)C(C(=O)NC1CCCCC1)c1ccc(OC)cc1OC` (centres undefined), the activity change, negative = growth inhibition is reported as inconclusive: -32.5% [inhibitor].
With `O=C(/C=C/c1cccc([N+](=O)[O-])c1)OCC1CCCO1` (centres undefined) the Potency was “inactive”.
With `O=C(Cc1ccccc1)NCC(=O)OCC(=O)c1ccc([N+](=O)[O-])cc1` the Potency was inconclusive: 29.1 µM [inhibitor, single point].
For `Cc1cc(NC(=O)C(C)N2C(=O)c3ccccc3S2(=O)=O)no1` (centres undefined), the Potency was “inactive”.
For `CN1CCN(C(=O)c2ccc(COc3ccc(Cl)cc3Cl)cc2)CC1`, the Potency was inconclusive: 25.9 µM [inhibitor, single point].
With `Cc1ccc(CNC(=O)C2CC(=O)N(C3CCCCCCC3)C2)cc1` (centres undefined) the Potency was “inactive”.
For `CC(C)Oc1ccc(/C=N/NC(N)=S)cc1`, the activity change, negative = growth inhibition was inconclusive: -33.4% [inhibitor].
For `COc1ccc(-c2csc(N(CC3CCCO3)C(=O)c3ccco3)n2)cc1` (centres undefined), the Potency was active: 20.6 µM.
For `CC(C)CC(=O)Nc1nnc(SCC(=O)NCc2ccc3c(c2)OCO3)s1`, the Potency was “inactive”.
With `Cc1ccc(-n2c(NN)nc3ccccc3c2=O)c(C)c1` the Potency was inconclusive: 29.1 µM [inhibitor, single point].
For `CN(C)S(=O)(=O)c1cccc(NC(=O)Cc2ccc(-c3ccccc3)cc2)c1`, the Potency was inconclusive: 29.1 µM [inhibitor, single point].
In the case of `Cc1ccc([N+](=O)[O-])cc1Nc1nc(N2CCCC2)nc(N2CCCC2)n1`, the Potency is reported as inconclusive: 25.9 µM [inhibitor, single point].
In the case of `CN(CC(=O)Nc1ccc2c(c1)OCCO2)S(=O)(=O)c1ccc(Br)s1`, the Potency is reported as inconclusive: 23.1 µM [inhibitor, single point].
For `O=C(C1CCCCC1)N1C[C@H](O)[C@@H](n2cc(C3CC3)nn2)C[C@@H]1c1ccccc1`, the Potency was “inactive”.
With `COC(=O)[C@@]12C[C@@H](CC(=O)N3CCN(C(=O)c4ccco4)CC3)C(=O)N(CCc3ccc(OC)c(OC)c3)C1=CCC(C)(C)C2` the Potency was inconclusive: 29.1 µM [inhibitor, single point].
For `CCCCN(CC)CCCNC(=O)c1ccc(CS(=O)(=O)c2ccccc2C)o1`, the Potency was “inactive”.
For `CCc1nc2c(OCCC3CCCCC3)cccn2c1N(C=O)Cc1ccccc1`, the Potency was inconclusive: 18.4 µM [inhibitor, single point].
In the case of `CC(C)CCn1nnnc1C(c1ccccc1F)N1CCC(C(N)=O)CC1` (centres undefined), the Potency is reported as inconclusive: 16.4 µM [inhibitor, partial curve].
With `COc1cc(/C=N/NC(=O)CSc2nc3ccccc3n2C)cc(OC)c1OC` the Potency was inconclusive: 25.9 µM [inhibitor, partial curve, poor fit].
For `O=[N+]([O-])c1ccc2cn(-c3ccccc3)nc2c1`, the Potency was inconclusive: 29.1 µM [inhibitor, single point].
For `CCOc1ccc(NC(=O)CN(C)C(=O)c2csc3c2CCCC3)cc1OCC`, the Potency was inconclusive: 29.1 µM [inhibitor, single point].
With `CCN(c1ccccc1)S(=O)(=O)c1cccc(C(=O)NCC(c2cccs2)N(C)C)c1` (centres undefined) the Potency was active: 20.6 µM.
With `CN(C)C(N)=NCCC[C@H](N)C(=O)O` the Potency was “inactive”.
For `O=C(c1cc(-c2ccncc2)nc2ccccc12)N1CCN(c2ncccn2)CC1`, the Potency was inconclusive: 14.6 µM [inhibitor, partial curve, poor fit].
With `COC(=O)C1=C(C#N)NC(C)=C(C(=O)OC(C)C)C1c1cccc([N+](=O)[O-])c1` (centres undefined) the Potency was active: 18.8 µM.
For `CC(=O)NC(Cc1c[nH]c2ccccc12)C(=O)O` (centres undefined), the Potency was “inactive”.
For `Cc1cc(-c2ccc(C)c(S(=O)(=O)NCCCN3CCN(c4ccccc4F)CC3)c2)on1`, the Potency was inconclusive: 23.1 µM [inhibitor, single point].
In the case of `CCCOc1ccc(OC(=O)Cc2ccc(OC)c(S(=O)(=O)N3CCOCC3)c2)cc1`, the Potency is reported as inconclusive: 11.6 µM [inhibitor, partial curve].
In the case of `O=C(COC(=O)Cn1cc(C(F)(F)F)ccc1=O)NCc1ccccc1`, the activity change, negative = growth inhibition is reported as inconclusive: -32.7% [inhibitor].
For `COc1ccccc1Cn1cc(C(=O)c2ccccc2)c(=O)c2cc(OC)c(OC)cc21`, the Potency was inconclusive: 18.4 µM [inhibitor, single point].
In the case of `CCCS(=O)(=O)NC(=O)C1(C)CCCN(C(=O)c2ccnc(Cl)c2)C1` (centres undefined), the Potency is reported as “inactive”.
